According to PubChem BioAssay (NCATS):
Records with an inconclusive call do not appear. Unless noted, the call rests on the fitted dose curve. A structure can be active in one record and inactive in another. The source holds more than one record for some entries. The list is limited to them. An entry can have further records. The records of an entry repeat one measurement (runs, samples, wells, individuals or studies). What stands in brackets tells the records apart. Letters hold for one entry only.

Legend:
[1] = qHTS for Inhibitors of the Functional Ribonucleoprotein Complex (vRNP) of Lassa (LASV) Arenavirus: LASV Primary Screen - GLuc reporter signal (AID 1347082; calls by dose curve; tested in HEK293 reporter line; further: nearly all actives have a fitted effect of over 60% in size)
[2] = qHTS for Inhibitors of the Functional Ribonucleoprotein Complex (vRNP) of Lassa (LASV) Arenavirus: Viability assay - alamar blue signal for LASV Primary Screen (AID 1347083; calls by dose curve; tested in HEK293 reporter line; further: nearly all actives have a fitted effect of over 80% in size)
[3] = biological target: Nucleoprotein (Lymphocytic choriomeningitis virus (strain Armstrong)) (UniProt P09992); test: qHTS for Inhibitors of the Functional Ribonucleoprotein Complex (vRNP) of Lymphocytic Choriomeningitis Arenaviruses (LCMV): LCMV Primary Screen - GLuc reporter signal (AID 1347086); further: nearly all actives have a fitted effect of over 70% in size
Sequence of UniProt P09992 (P09992 whole entry, looked up): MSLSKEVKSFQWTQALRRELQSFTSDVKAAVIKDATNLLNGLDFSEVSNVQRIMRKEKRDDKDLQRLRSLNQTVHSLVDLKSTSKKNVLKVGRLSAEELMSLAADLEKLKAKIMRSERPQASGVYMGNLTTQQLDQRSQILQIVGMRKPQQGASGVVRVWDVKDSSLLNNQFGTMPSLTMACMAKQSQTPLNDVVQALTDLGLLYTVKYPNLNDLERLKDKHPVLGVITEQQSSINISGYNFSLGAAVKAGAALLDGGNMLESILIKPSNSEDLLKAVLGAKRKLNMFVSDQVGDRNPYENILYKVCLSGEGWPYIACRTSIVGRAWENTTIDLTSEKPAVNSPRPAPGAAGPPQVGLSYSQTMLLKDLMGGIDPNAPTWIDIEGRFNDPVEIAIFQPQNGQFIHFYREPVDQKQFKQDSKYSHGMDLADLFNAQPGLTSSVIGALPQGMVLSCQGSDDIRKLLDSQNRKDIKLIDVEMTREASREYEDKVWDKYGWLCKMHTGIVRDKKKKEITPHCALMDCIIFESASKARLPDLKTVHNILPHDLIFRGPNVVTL

[4] = Vero cells viability qHTS for Zika virus inhibitors (AID 1347167; active means well fitted cell-killing curve with a large enough effect)
Outline: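 Cells seeded at 2.5 x 10^5 cells/mL in DMEM with 4% FBS and attached overnight at 37 degrees C, then exposed to compound for 24 to 48 hours. Viability read as ATP content by CellTiter Glo luminescence.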
Potency means the concentration at half of the fitted maximal effect.

## COC(=O)[C@@H](N)CCCN=C(N)N[N+](=O)[O-]
[1]
  Potency: active: 38.5 µM [sample A] and inactive [sample B]
[2]
  Potency: active: 17.2 µM [sample A] and inactive [sample B]

## O=C(N[C@H]1CN2CCC1CC2)c1ccc(Cl)cc1
[2]
  Potency: inactive [sample A] and active: 13.7 µM [sample B]

## CC(C)c1ccc2c(c1)c(SC(C)(C)C)c(CC(C)(C)C(=O)O)n2Cc1ccc(Cl)cc1
[3]
  Potency: inactive [sample A] and active: 21.7 µM [sample B]

## CC1=C(O)C(=O)C=C2C1=CC=C1[C@@]2(C)CC[C@@]2(C)[C@@H]3C[C@](C)(C(=O)O)CC[C@]3(C)CC[C@]12C
[4]
  Potency: inactive [sample A] and active: 23.3 µM [sample B]
